SMILES strings stand for the structures. Hit rate of the full screen: of about 52,000 compounds, about 1,700 (3.3%) were called active. Rule as the data show it: active = survival mostly below about 52% (no sharp cut-off); inactive = mostly above about 56%. This is one part of the list.

This test has as its system Wild type. Description: S. aureus survival, RN4220 and DeltatarO strains – OD600, teichoic acid synthesis inhibitors, primary screen (AID 463173). Particulars: S. aureus RN4220 wild type/DeltatarO growth, OD600, 18 h, hits give low values, screened at 18.75 µg/mL (by protocol).
As to `CCOc1ccccc1N(C)C(=O)c1cc(S(=O)(=O)NCCc2ccc(Cl)cc2)ccc1F`, the survival is inactive: 58%. For the molecule `CCc1ccccc1NC(=O)CSc1nc(C)c(C(=O)Nc2ccccc2)c(-c2ccc(Cl)cc2)c1C#N`, the survival was inactive: 77%. The value for `CCOC(=O)c1c(C)[nH]c(C)c1S(=O)(=O)N1CCC(C(=O)NCc2cccc(C)c2)CC1` was inactive: 76%; that for `O=C(Nc1ccc(-c2nc3ccccc3s2)c(O)c1)c1ccc(Br)cc1` was inactive: 85%; that for `Cc1ccc(NC(=O)C2CCN(S(=O)(=O)c3cccc4nonc34)CC2)c(Cl)c1` was inactive: 108%. As for `CCOC(=O)C1=C(CS(=O)(=O)c2ccc(C(C)(C)C)cc2)NC(=O)NC1c1cccc(OC)c1` (stereo unspecified), the survival was inactive: 80%. Regarding `C=CCc1ccccc1OCC(CN1CCCCC1)OC(C)=O` (stereo unspecified), the survival was inactive: 112%. `Cc1cccc(NC(=O)CSc2nnc3[nH]c(=O)cc(C)n23)c1C`: the survival was inactive: 83%. Consider `COc1ccc(-c2cc3c(=O)n(CC(=O)Nc4ccc(Br)c(C)c4)ccn3n2)cc1OC`, for which the survival is inactive: 89%. Turning to `COc1ccc(N2CCN(C(=O)c3cnc(SC)nc3C)CC2)cc1`, the survival is inactive: 59%. Take `Cc1cc(S(=O)(=O)Nc2cc3c(cc2NCc2ccccc2)n(C)c(=O)n3C)ccc1F`: the survival is inactive: 67%. In the case of `O=C(CCn1c(=O)c2cccn2c2cccnc21)Nc1ccccc1Br`, the survival is inactive: 80%. The result for `CCCc1c(C)c2ccccc2[nH]c1=O` reads inactive: 107%; that for `O=C(CSCc1ccc(F)cc1)N1CCc2c([nH]c3ccccc23)C1c1ccc(F)cc1` (stereo unspecified), inactive: 71%. Consider `Cc1ccc[n+](Cc2cnc(C)nc2N)c1`, for which the survival is inactive: 125%. The value for `COc1ccc(CCNC(=O)CCCCn2c(=O)c3ccccc3n(CC(=O)Nc3ccc(C)cc3C)c2=O)cc1OC` was inactive: 108%; that for `COC(=O)c1cccc(Cn2nnc3sc4c(c3c2=O)CCC(C(C)(C)C)C4)c1` (stereo unspecified) was inactive: 91%; that for `O=C(COc1ccccc1)NCCc1csc(-c2cccc(F)c2)n1` was inactive: 80%. Turning to `Cc1ccc(C)c(Nc2nc(-c3ccccc3)c3cc(Br)ccc3n2)c1`, the survival is inactive: 42%.

For the molecule `N#Cc1cccc(NC(=O)Cn2nc(Cc3ccncc3)c3ccccc3c2=O)c1`, the survival is inactive: 123%. Take `CCN1C(=O)C(Cc2nc3ccccc3c(=O)n2-c2ccc(OC)cc2)c2cc(C)ccc21` (stereo unspecified): the survival was inactive: 91%. Take `O=C(c1cccs1)N1CCCn2c1nc1ccccc12`: the survival is inactive: 106%. With `O=C(CSc1ncn[nH]1)n1c2ccccc2c2ccccc21`, the survival is inactive: 90%. On to `Cc1cccc(C(=O)Nc2cccc(OCc3cc(=O)n4cccc(C)c4n3)c2)c1`, for which the survival was inactive: 76%. As to `Cc1cccc(N(C)C(CNS(=O)(=O)c2ccccc2)c2ccccc2)c1` (stereo unspecified), the survival is inactive: 86%. Consider `O=C(Nc1cccc(Cl)c1)c1cc(-c2ccc3c(c2)OCCO3)on1`, for which the survival is inactive: 122%. In the case of `CCN(CC)CCNC(=O)C(=O)NCC(c1cccnc1)N1CCN(c2ccccc2)CC1` (stereo unspecified), the survival was inactive: 104%. As for `N#CN=C(N)CSc1nc(-c2ccccc2)cc(-c2ccccc2)c1C#N`, the survival was inactive: 114%. For the molecule `Cc1cc(Sc2ccc(Cl)cc2)nc2ccccc12`, the survival is inactive: 50%. `CC(C)(C)OC(=O)N1CCC(c2c(C(=O)NC3CCCCC3)cnn2-c2cccc(F)c2)CC1`: the survival was inactive: 121%.

As for `O=C(CSc1ccccc1)NCc1ccc2c(c1)CCN2C(=O)c1ccc(Cl)cc1`, the survival is inactive: 117%. `Cc1cc(C)n(C2CC(=O)N(N(C)C)C2=O)n1` (stereo unspecified): the survival is inactive: 98%.

Turning to `O=C(COc1ccccc1)NCc1ccc2c(c1)CCN2C(=O)c1ccccc1`, the survival was inactive: 60%. Consider `COc1ccccc1N1CCN(CC(=O)N2CCCC2)CC1`, for which the survival was inactive: 94%.

On to `Cc1ccc(N(C)S(=O)(=O)c2ccc3[nH]c4c(c3c2)CCCC4)cc1`, for which the survival was inactive: 63%. Turning to `Cc1cccc(C(=O)Nc2cccc(C(=O)OCc3cc(=O)n4nc(C(C)C)sc4n3)c2)c1`, the survival is inactive: 126%. In the case of `Cn1nnnc1SCCNCc1ccc(OCc2ccccc2Cl)cc1`, the survival is inactive: 53%. Take `CC(NC(=O)c1ccc(NC(=O)c2nsc3ccccc23)cc1)c1ccccc1` (stereo unspecified): the survival was inactive: 69%. As for `COc1ccc(-n2nc(C(=O)Nc3ccc(Cl)cn3)c3c4ccccc4n(C)c3c2=O)cc1Cl`, the survival is inactive: 77%. Consider `Cc1cccc(NC(=O)c2sc3nc4c(cc3c2N)CCCCCC4)c1C`, for which the survival was inactive: 121%. On to `Clc1ccc(OCc2nc3ccccc3[nH]2)cc1`, for which the survival was inactive: 105%. As to `COC(=O)c1c(NC(=O)Cc2coc3ccc(C)cc23)sc2c1CCC2`, the survival was inactive: 84%.

On to `O=C(c1ccccc1Cl)N(Cc1ccco1)Cc1ccco1`, for which the survival was inactive: 92%. Regarding `Cc1ccccc1Nc1c(-c2cccc(N(C)C)c2)nc2ccc(Br)cn12`, the survival was inactive: 88%.

For `Cc1cc(F)ccc1-n1nnc(C(N)=O)c1C`, the survival was inactive: 64%. With `CC(=O)c1cccc(NC(=O)c2c(-c3ccccc3)c(-c3ccccc3)nn(C)c2=O)c1`, the survival is inactive: 86%. For `CN(Cc1ccccc1)c1ccc(-c2nc(-c3ccco3)no2)cc1[N+](=O)[O-]`, the survival is inactive: 76%. Regarding `Cc1ccc(CCNC(=O)c2cc(Nc3ccc(C)c(C)c3)nc3ccccc23)cc1`, the survival is inactive: 76%. Regarding `CC(C)C1C(=O)Nc2ccc(S(=O)(=O)NCc3ccc(Cl)cc3)cc21` (stereo unspecified), the survival is inactive: 64%. In the case of `Cc1ccc(NC(=O)CSc2c3c(nc4ccccc24)CCCC3)cc1F`, the survival was inactive: 36%. On to `Cc1cc(=O)n(CC(=O)Nc2ccc([N+](=O)[O-])cc2)c(-n2nc(C)cc2C)n1`, for which the survival is inactive: 75%. As for `CCOC(=O)c1ccc(NC(=O)CC2C(=O)N(c3ccc(C)cc3)C(=O)N2C2CCCCC2)cc1` (stereo unspecified), the survival is inactive: 86%. The value for `Cc1cc(C(F)(F)F)nn1-c1nc(-c2ccccc2)cc(C(F)(F)F)n1` was active: 13%; that for `Cc1ccccc1NC(=O)Cn1c(=O)n(CCc2ccccc2)c(=O)c2sc3ccccc3c21` was inactive: 98%; that for `Cc1[nH]c2ccccc2c1C(c1ccccc1)c1cccs1` (stereo unspecified) was inactive: 28%. As to `COc1ccc(CCN2C(=O)c3[nH]nc(-c4ccccc4O)c3C2c2cccc(OC)c2)cc1` (stereo unspecified), the survival is inactive: 73%. The result for `OC(CN1CCOCC1)Cn1c2ccccc2c2ccccc21` (stereo unspecified) reads inactive: 99%; that for `Cc1cccc(-n2c(SCc3nc(-c4ccccc4C)no3)nnc2-c2ccccc2)c1`, inactive: 88%. Turning to `CC(C)S(=O)(=O)c1oc(-c2ccc(F)cc2)nc1S(=O)(=O)c1ccccc1`, the survival is inactive: 23%.

As for `CN1CCN(c2oc(/C=C/c3ccc(F)cc3)nc2C#N)CC1`, the survival was inactive: 76%. The value for `CCc1nn(CC(=O)NC(C)CC)c(=O)c2cc3c(OC)cccc3n12` (stereo unspecified) was inactive: 133%; that for `COc1cc(NC(=O)c2nn(-c3ccc(C)cc3)c(=O)c3c2c2ccccc2n3C)cc(OC)c1OC` was inactive: 74%; that for `CCOC(=O)c1ccccc1NS(=O)(=O)c1ccc(N2CCCCS2(=O)=O)cc1` was inactive: 97%. For `O=C(Cc1nc2ccccc2[nH]1)N1CCCC1`, the survival was inactive: 107%. As for `CCOc1ccc(-n2nc(CO)c(C(=O)NCc3cccnc3)n2)cc1`, the survival was inactive: 83%.

As for `COc1ccc(-c2noc(-c3ccc(N4CCN(c5ccc(OC)cc5)CC4)c([N+](=O)[O-])c3)n2)cc1`, the survival is inactive: 84%. The value for `Cc1ccc(NC(=O)CC2SC3=NCCN3C2=O)cc1` (stereo unspecified) was inactive: 93%.

`COc1cc(C)ccc1OCCCn1c(-c2ccc(Cl)cc2)nc2ccccc2c1=O`: the survival is inactive: 83%. `COc1cccc(N2CCN(C(=O)c3cc4c(=O)n(Cc5ccccc5)ccc4nc3C)CC2)c1`: the survival was inactive: 126%. Turning to `Cc1cccn2c(=O)c(C(=O)NCc3ccccc3Cl)c(O)nc12`, the survival was inactive: 54%. The result for `CS(=O)(=O)N1CCN(c2ncnc3c(-c4ccc(Cl)cc4)nsc23)CC1` reads inactive: 110%; that for `Cc1ccccc1-c1nc(CS(=O)CC(=O)N2CCN(c3cc(Cl)ccc3C)CC2)c(C)o1` (stereo unspecified), active: 10%; that for `O=C(NCCCO)c1cc2sc3ccccc3c2s1`, inactive: 103%.

With `CCN(CC)CCCNC(=O)Cn1nc(C)n2c(cc3sccc32)c1=O`, the survival was inactive: 84%. Turning to `O=C1/C(=C/c2ccccc2)Nc2ccccc21`, the survival is inactive: 121%. For the molecule `CCCCC(=O)Nc1cccc(-c2nc3ncccc3o2)c1C`, the survival is inactive: 66%. For the molecule `CCC(=O)N1c2ccccc2CC1C(=O)NCc1cccc(C)c1` (stereo unspecified), the survival is inactive: 72%. For `COc1ccc(CCNC(=O)Cn2c(=O)n(-c3ccc(C)c(C)c3)c(=O)c3c(C)c(C)sc32)cc1OC`, the survival was inactive: 86%. In the case of `COc1ccc(Cn2nnc3c(=O)[nH]c(C4CCCN(C(=O)c5ccc(C)cc5)C4)nc32)cc1` (stereo unspecified), the survival was inactive: 108%. As to `CCCCc1ccc(NC(=O)Cn2nnc3sc4c(c3c2=O)CCC(C)C4)cc1` (stereo unspecified), the survival was inactive: 77%. The value for `Cc1ccc(C(=O)c2oc3ccccc3c2NC(=O)Cc2coc3cc(C)ccc23)cc1` was inactive: 81%; that for `COc1ccc(OC)c(C(=O)c2c(N)c(-c3nc(-c4ccc(C)c(C)c4)cs3)c3ccccn23)c1` was inactive: 117%; that for `Clc1cccc(CSc2nncn3c2cc2sccc23)c1` was inactive: 65%. Consider `CCc1ccccc1NC(=O)Cn1ccn(-c2cc(C)cc(C)c2)c(=O)c1=O`, for which the survival is inactive: 91%. With `COc1ccc(NC(=O)c2ccc3oc(=O)c(S(=O)(=O)c4ccc(C)cc4)cc3c2)cc1OC`, the survival was inactive: 84%. As to `CCOc1cccc(C2Nc3ccccc3-c3cc(C)nn32)c1O` (stereo unspecified), the survival is inactive: 145%.

Take `Cc1nn(S(=O)(=O)c2ccccc2)c(C)c1S(=O)(=O)N1CCC(C)CC1`: the survival was inactive: 81%.

Turning to `CC(C)c1cc(C(=O)O)on1`, the survival was inactive: 101%. The value for `CCOC(=O)C1(C)C=C(Nc2ccc(Br)cc2)C(=O)N1c1ccccc1` (stereo unspecified) was inactive: 69%. The value for `CCn1c(=NC(=O)c2ccc3c(c2)OCCO3)sc2c(C)ccc(OC)c21` was inactive: 129%; that for `Cc1ccc(NC(=O)CSc2nc(C)c(Cc3ccccc3)c(=O)[nH]2)cc1C` was inactive: 80%.

Source of the values: PubChem BioAssay AID463173 (ICCB-Longwood Screening Facility, Harvard Medical School, 2010).
